# Over roughly 110,000 compounds, “z-score” has its median near -0.1; the highest 2% begin near 2. The list shows a part of the results.
# Molecular target: Metabotropic glutamate receptor 8 (Rattus norvegicus) (UniProt P70579)
# Test: mGluR8 Gi/Go-coupled signaling modulation – cell-based, rat, thallium flux, HTS, primary screen (AID 488969)
# Conditions: HEK293 rat mGluR8, GIRK (G protein-gated inwardly rectifying potassium channel) thallium flux, FluoZin2; at 10 µM; stronger effect = higher value; submaximal glutamate (EC20) added with thallium
# Chain of UniProt P70579 (P70579 whole entry, looked up): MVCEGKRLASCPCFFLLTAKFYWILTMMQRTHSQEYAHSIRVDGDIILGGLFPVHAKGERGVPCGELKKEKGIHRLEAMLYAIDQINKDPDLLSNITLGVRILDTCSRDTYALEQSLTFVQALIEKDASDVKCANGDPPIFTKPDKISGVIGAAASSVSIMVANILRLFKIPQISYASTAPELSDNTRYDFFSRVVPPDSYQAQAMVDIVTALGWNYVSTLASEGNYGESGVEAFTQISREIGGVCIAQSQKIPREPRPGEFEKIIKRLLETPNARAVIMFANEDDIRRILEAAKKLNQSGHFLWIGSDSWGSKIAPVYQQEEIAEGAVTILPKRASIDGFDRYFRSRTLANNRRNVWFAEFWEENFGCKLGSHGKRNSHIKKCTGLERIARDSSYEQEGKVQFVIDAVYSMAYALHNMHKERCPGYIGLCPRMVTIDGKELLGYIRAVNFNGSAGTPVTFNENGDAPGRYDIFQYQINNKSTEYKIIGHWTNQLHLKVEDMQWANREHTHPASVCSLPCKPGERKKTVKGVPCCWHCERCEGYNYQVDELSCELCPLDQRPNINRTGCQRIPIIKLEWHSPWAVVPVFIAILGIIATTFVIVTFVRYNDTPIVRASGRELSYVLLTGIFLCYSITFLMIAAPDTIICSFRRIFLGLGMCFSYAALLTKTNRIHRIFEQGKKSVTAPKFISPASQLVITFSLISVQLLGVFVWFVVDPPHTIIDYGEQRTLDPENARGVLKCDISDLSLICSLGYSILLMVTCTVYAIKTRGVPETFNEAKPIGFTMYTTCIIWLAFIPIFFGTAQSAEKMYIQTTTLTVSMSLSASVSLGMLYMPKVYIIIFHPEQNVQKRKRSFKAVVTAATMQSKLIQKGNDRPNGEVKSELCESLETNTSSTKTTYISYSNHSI
row,SMILES,z-score
1,CCOc1nc(NC(=O)NS(=O)(=O)c2cccc(Cl)c2)nc(-c2ccccc2)n1,-0.242
2,Cc1ccc(S(=O)(=O)N2CCOCC2)cc1NC(=O)COc1ncnc2ccccc12,-0.311
3,NNc1nc(Nc2ccccc2)nc(N2CCCCC2)n1,-0.323
4,CN=C(Nc1cc(C)nn1CCC#N)c1ccc(F)cc1,-0.419
5,COc1ccc(NC(=O)c2c(C(F)(F)F)nn(C)c2SCc2ccccc2)cc1,-0.388
6,Fc1ccc(Sc2nc(-c3ccccc3)nnc2C(F)(F)F)cc1,-0.000337
7,COC(=O)c1ccc(CN(C(C)=O)c2ccccc2)o1,-0.52
8,CS(=O)(=O)c1ccc2nc(NC(=O)c3cc(-c4ccccc4)nn3-c3ccccc3)sc2c1,0.0633
9,CCOC(=O)c1ccc(NC(=S)N(CCCN2CCCCCC2)Cc2ccco2)cc1,0.0244
10,COC(=O)CCN(C)CCC(=O)OC,0.0875
11,Cc1cc(C(=O)COc2cccnc2[N+](=O)[O-])c(C)n1-c1ccccc1,-0.0167
12,COc1ccc(C(=O)Nc2cccc(-c3nc4ncccc4o3)c2C)cc1,-0.279
13,COc1ccc(Cl)cc1-n1c(=S)sc2c(=O)[nH]c(SCC(=O)NCC3CCCO3)nc21 (stereo unspecified),-0.241
14,COc1ccc(C(C#N)Nc2ccccc2OC)cc1 (stereo unspecified),0.255
15,CCN(CC)S(=O)(=O)c1ccc(C)c(NC(=O)CSc2nc3ccc(C)cc3[nH]2)c1,-0.268
16,O=C(Cn1nc(-c2ccccc2)ccc1=O)NCC1CCCO1 (stereo unspecified),-0.249
17,CCSC(=O)CCCCCCCCCCCO,-0.16
18,Nc1nonc1C(=O)NCCNC(=O)c1ccccc1F,-0.0271
19,CCCOc1ccc(Cc2c(Cl)nc(SC)nc2OC)cc1,-0.0544
20,COCCn1c(=O)[nH]c(=O)c2c1nc(-c1ccc(-c3ccc(Cl)cc3[N+](=O)[O-])o1)n2Cc1ccccc1,-0.623
21,Cc1cccc(N2CCN(CCNC(=O)c3cc4c(s3)CS(=O)(=O)C4)CC2)c1C,-0.197
22,COc1ccc(N2CCN(CCNC(=O)CCCn3c(=O)[nH]c4cc(Cl)ccc4c3=O)CC2)cc1,-0.19
23,CCOC(=O)c1cc(-c2ccc(F)cc2)n(CC(=O)Nc2nccs2)c1C,-0.293
24,CC(C)C(=O)Nc1cccc(C(=O)N2CCCCC2C)c1 (stereo unspecified),-0.0477

row,SMILES,z-score
1,CC(C)OC(=O)CSc1nc2cccnc2n1C1CCCCC1,-2.12
2,O=C(c1ccc(F)cc1)C1CCN(C(=S)Nc2ccccc2)CC1,-0.612
3,CCCCN(C(=O)NC(=O)Nc1cc(C)ccc1C)S(C)(=O)=O,0.48
4,O=C(Nc1ccccc1)N1N=C(c2cccs2)CC1c1cccs1 (stereo unspecified),0.278
5,CCc1c(C)c2cc(Cl)c(O)c(CN(C)C)c2oc1=O,-0.143
6,CC(C(=O)N/N=C/c1ccc(N(C)C)c(Br)c1)N(c1ccccc1)S(C)(=O)=O (stereo unspecified),0.35
7,Cc1ccc(Nc2nc3ccccc3s2)cc1,0.0689
8,Cc1ccnc(SCCn2c(N3CCC(C)CC3)nc3c2c(=O)n(C)c(=O)n3C)n1,-0.0924
9,CC(=O)c1cccc(NC(=O)C2CCCN(S(C)(=O)=O)C2)c1 (stereo unspecified),-0.0733
10,O=c1ccc(NS(=O)(=O)c2ccccc2)cn1Cc1ccc(Cl)c(Cl)c1,-0.157
11,Cc1ccc(Cl)cc1N1CCN(Cc2nnnn2Cc2ccco2)CC1,0.331
12,CCCC(=O)Nc1ccc(C(=O)Nc2nnc(COC)s2)cc1,-0.351
13,COc1ccc(/C=N/n2c(SC)nnc(C(C)(C)C)c2=O)c(OC)c1,0.277
14,Cc1cc2n(n1)C(c1ccc(O)cc1)Nc1ccccc1-2 (stereo unspecified),-0.195
15,O=[N+]([O-])c1ccc(CCNc2cccc3ccccc23)c([N+](=O)[O-])c1,-0.492
16,O=C(C(Cc1ccccc1)NS(=O)(=O)c1cccc2cccnc12)N1CCc2ccccc21 (stereo unspecified),-0.802
17,NS(=O)(=O)c1ccc(NC(=O)c2ccccc2Cl)cc1,0.401
18,O=C(CSc1nnc(CNc2ccc(F)cc2)n1Cc1ccco1)N1CCOCC1,-0.292
19,COc1ccc(NC(=O)c2cnc(C)cn2)cc1-n1cnnn1,0.218
20,COC(=O)c1ccc(NC(=O)CSC2=Nc3ccccc3C3CC=NN23)cc1 (stereo unspecified),-0.357
21,O=c1c2ccccc2oc2nc3ccn(Cc4ccncc4)c(=O)c3cc12,-0.0205
22,CC(C)(C)C1CCC2(CC1)SCC(=O)N2c1ccccc1 (stereo unspecified),0.035
23,Cc1cc(NC(=O)COc2cccc(Oc3ccccc3)c2)no1,0.0723
24,Cc1cc(O)c(NC(=O)c2ccc(Br)o2)cc1C,-0.0505

row,SMILES,z-score
1,COc1ccc2[nH]cc(S(=O)(=O)c3ccc(F)cc3)c(=O)c2c1,-0.447
2,Clc1ccc(-c2noc(CN3CCCC3)n2)cc1,0.149
3,COc1ccc(Cl)cc1NC(=O)Nc1cccc([N+](=O)[O-])c1C,-0.128
4,CN(CCNC(=O)c1cccc(N2CCCC2=O)c1)Cc1ccccc1,0.122
5,Cc1onc(-c2ccccc2)c1C(=O)Nc1ccon1,0.0382
6,CC(C)C(=O)Nc1nnc(CCN2CCOCC2)s1,-0.652
7,O=C(COC(=O)Cc1ccccc1F)Nc1ccc(SC(F)F)cc1,-0.337
8,O=C(NC(c1ccccc1)c1ccccc1)c1ccc(S(=O)(=O)C(F)F)cc1,-0.0614
9,Cc1nnc(SCC(=O)N2CCOCC2)c2ccccc12,0.316
10,O=C(N/N=C/c1cccnc1)c1ccccc1[N+](=O)[O-],0.0555
11,COc1ccc2nc(N/C(N)=N/C(=S)Nc3cccc(C)c3)nc(C)c2c1,-0.371
12,N/C(Cc1ccc([N+](=O)[O-])cc1)=N\OC(=O)Cc1ccc(Cl)cc1,0.0116
13,Cc1cc(C)n2nc(C(=O)Nc3cccnc3)nc2n1,-1.24
14,O=C(Nc1ccccc1)N(CCCN1CCOCC1)Cc1cc2cc3c(cc2[nH]c1=O)OCCO3,-0.351
15,COc1cccc(C(C(=O)NC2CCCC2)N(Cc2ccco2)C(=O)c2ccco2)c1OC (stereo unspecified),-0.188
16,Cc1cccc(NC(=O)c2cnn(C)c2)c1C,-0.363
17,Cc1cc(=O)cc(C)n1-c1ccccc1N1CCOCC1,0.19
18,COC(=O)C1=C(N)OC2=C(C(=O)CCC2)C1c1cccs1 (stereo unspecified),-0.205
19,CCCCNC(=O)CC(C(=O)N1CCc2ccccc21)n1ccnc1 (stereo unspecified),-0.0472
20,O=C(N/N=C/c1ccc2c(c1)OCO2)c1ccccn1,0.385
21,CCOC(=O)c1[nH]c(C)c(/C(O)=C2\C(=O)C(=O)N(CCN(C)C)C2c2ccc(C)o2)c1C (stereo unspecified),-0.288
22,Cc1ccc2[nH]c3c(=O)n(CCCN4CCOCC4)cnc3c2c1,-0.0181
23,CCCCCn1c2nc3ccccc3nc2c2c(=O)n(CC(C)C)cnc21,-0.289

# Reference: PubChem BioAssay AID488969 (Vanderbilt High Throughput Screening Facility, 2010)
